Assay results: PMC8620910, “Design and Synthesis of (2-oxo-1,2-Dihydroquinolin-4-yl)-1,2,3-triazole Derivatives via Click Reaction: Potential Apoptotic Antiproliferative Agents” (Molecules, 2021)
Where “and” joins values, the source holds several entries; their conditions need not be identical. Identical values can stand only once.

Experiments:
[1] = system: A-549, MCF-7, Panc-1 and HT-29 cell lines; test: Average anti-proliferative IC50 over the four cancer cell lines; format: cell-based; conditions: Homo sapiens; average of A-549, MCF-7, Panc-1, HT-29
Procedure: (§1) Tested 8a–l compounds were assessed for their anti-proliferative activity against four human cancer cell lines, including the pancreatic cancer cell line (Panc-1), breast cancer cell line (MCF-7), colon cancer cell line (HT-29), and epithelial cancer cell line (A-549) using propidium iodide fluorescence assay and the reference doxorubicin.
(§2) To explore the anti-proliferative potential of compounds, propidium iodide fluorescence assay was performed using different cell lines such as Panc-1 (pancreas cancer cell line), MCF-7 (breast cancer cell line), HT-29 (colon cancer cell line), and A-549 (epithelial cancer cell line), respectively. To calculate the total nuclear DNA, a fluorescent dye (propidium iodide, PI) is used to attach to the DNA, thus offering a quick and precise technique. PI cannot pass through the cell membrane, and its signal intensity can be considered as directly proportional to the quantity of cellular DNA. Cells whose cell membranes are damaged or have changed permeability are counted as dead ones. The assay was performed by seeding the cells of different cell lines at a density of 3000–7500 cells/well (in 200 μL medium) in culture plates followed by incubation for 24 h at 37 °C in humidified 5%CO2/95% air atmospheric conditions. The medium was removed; the compounds were added to the plates at 10 μM concentrations (in 0.1% DMSO) in triplicates, followed by incubation for 48h. DMSO (0.1%) was used as a control. After incubation, the medium was removed, followed by the addition of PI (25 μL, 50 μg/mL in water/medium) to each well of the plates. At −80 °C, the plates were allowed to freeze for 24 h, followed by thawing at 25 °C. A fluorometer (Polar-Star BMG Tech, Beijing, China) was used to record the readings at excitation and emission wavelengths of 530 and 620 nm for each well. The percentage cytotoxicity of compounds was calculated using the following formula: % Cytotoxicity=AC−ATC/AC×100 where ATC = absorbance of treated cells and AC = absorbance of control. Doxorubicin was used as a positive control in the assay.

[2] = system: Cytochrome C; test: Cytochrome C assay in MCF-7; format: cell-based, human; conditions: for Cytochrome C Conc: MCF-7; for Cytochrome C Fold Change: MCF-7, versus untreated control
Procedure: The amount of cytochrome C in a cell plays an important role in caspase activation and the initiation of the intrinsic apoptosis pathway. […] The findings add to the proof that apoptosis can be attributed to cytochrome C overexpression and activation of the intrinsic apoptotic pathway triggered by the tested compounds.
Cells were obtained from American Type Culture Collection, grown in RPMI 1640 containing 10% fetal bovine serum at 37 °C, stimulated with the compounds to be tested for cytochrome C, and lysed with Cell Extraction Buffer. This lysate was diluted in Standard Diluent Buffer over the range of the assay and measured for cytochrome C content. (cells were plated in cells/well in a volume of 100 µL complete growth medium + 100 µL of the tested compound + 50 µL of 1× biotin-conjugated antibody + 100 µL of 1× streptavidin-HRP + 100 µL TMB substrate soln of per well in a 96-well plate for 24 h before assay).

[3] = system: Bcl-2; test: Bcl-2 inhibition assay in MCF-7; conditions: for Bcl-2 Conc: MCF-7; for Bcl-2 Fold Reduction: MCF-7, versus untreated control
[4] = system: epithelial cancer cell line (A-549); test: Anti-proliferative propidium iodide fluorescence assay, A-549; format: cell-based; conditions: Homo sapiens, A549; read-out: Anti-Proliferative Activity IC50 ± SEM, A-549
Procedure: as §1, with “doxorubicin. Results (IC50) are illustrated in Table 3.” for “doxorubicin.”
(§3) To explore the anti-proliferative potential of compounds, propidium iodide fluorescence assay was performed using different cell lines such as Panc-1 (pancreas cancer cell line), MCF-7 (breast cancer cell line), HT-29 (colon cancer cell line), and A-549 (epithelial cancer cell line), respectively. […] PI cannot pass through the cell membrane, and its signal intensity can be considered as directly proportional to the quantity of cellular DNA. Cells whose cell membranes are damaged or have changed permeability are counted as dead ones. […] A fluorometer (Polar-Star BMG Tech, Beijing, China) was used to record the readings at excitation and emission wavelengths of 530 and 620 nm for each well. The percentage cytotoxicity of compounds was calculated using the following formula: % Cytotoxicity=AC−ATC/AC×100 where ATC = absorbance of treated cells and AC = absorbance of control. […]

[5] = system: Caspase 9; test: Caspase 9 level in MCF-7; format: cell-based, human; conditions: for Caspase 9 Conc: MCF-7; for Caspase 9 Fold Change: MCF-7, versus untreated control
Procedure: (§4) Compounds 8e and 8g were also tested for their effects on Caspases 8 and 9.

[6] = system: Bax; test: Bax activation assay in MCF-7; conditions: for Bax Conc: MCF-7; for Bax Fold Change: MCF-7, versus untreated control
[7] = system: active Caspase 3; test: Caspase 3 activation assay in MCF-7; conditions: for Caspase 3 Fold Change: MCF-7, versus untreated control
[8] = system: colon cancer cell line (HT-29); test: Anti-proliferative propidium iodide fluorescence assay, HT-29; format: cell-based; conditions: Homo sapiens, read-out: Anti-Proliferative Activity IC50 ± SEM, HT-29
Procedure: as §1, with “doxorubicin. Results (IC50) are illustrated in Table 3.” for “doxorubicin.”
as §3

[9] = system: pancreatic cancer cell line (Panc-1); test: Anti-proliferative propidium iodide fluorescence assay, Panc-1; format: cell-based; conditions: Homo sapiens, read-out: Anti-Proliferative Activity IC50 ± SEM, Panc-1
Procedure: as §1, with “doxorubicin. Results (IC50) are illustrated in Table 3.” for “doxorubicin.”
as §3

[10] = Cell viability assay (MTT) on MCF-10A; format: cell-based; conditions: human, MCF-10A mammary epithelial cells, four days
Procedure: A human mammary gland epithelial cell line was used in the cell viability assay (MCF-10A). MCF-10A cells were incubated with compounds 8a–l for four days, and cell viability was determined using an MTT assay.
An MTT assay was performed to investigate the effect of the synthesized compounds on mammary epithelial cells (MCF-10A) at a concentration of 50 µM for the tested compound. The cells were propagated in a medium consisting of Ham’s F-12 medium/Dulbecco’s modified Eagle’s medium (DMEM) (1:1) supplemented with 10% fetal calf serum, 2 mM glutamine, insulin (10 μg/mL), hydrocortisone (500 ng/mL), and epidermal growth factor (20 ng/mL). Trypsin ethylenediamine tetra acetic acid (EDTA) was used to pass the cells every 2–3 days. Ninety-six-well flat-bottomed cell culture plates were used to seed the cells at a density of 10^4 cells mL^−1. The medium was aspirated from all the wells of culture plates after 24 h followed by the addition of synthesized compounds (in 200 μL medium to yield a final concentration of 0.1% (v/v) dimethylsulfoxide) into individual wells of the plates. Four wells were designated to a single compound. The plates were allowed to incubate at 37 °C for 96 h. […] The plates were vortexed, followed by the measurement of absorbance at 540 nm on a microplate reader. […]

[11] = system: active Caspase 8; test: Caspase 8 activation assay in MCF-7; format: cell-based, human; conditions: for Caspase 8 Conc: MCF-7; for Caspase 8 Fold Change: MCF-7, versus untreated control
Procedure: as §4
Cells were obtained from American Type Culture Collection; cells were grown in RPMI 1640 containing 10% fetal bovine serum at 37 °C, stimulated with the compounds to be tested for caspase8, and lysed with Cell Extraction Buffer. This lysate was diluted in Standard Diluent Buffer over the range of the assay and measured for human active Caspase 8 content. (cells were plated in a density of 1.2–1.8 × 10,000 cells/well in a volume of 100 µL complete growth medium + 100 µL of the tested compound per well in a 96-well plate for 24 h before the enzyme assay for Tubulin). […] A standard curve was prepared from seven human Caspase 8 standard dilutions, and human Caspase 8 concentration was determined.

[12] = system: breast cancer cell line (MCF-7); test: Anti-proliferative propidium iodide fluorescence assay, MCF-7; format: cell-based; conditions: Homo sapiens, MCF7; read-out: Anti-Proliferative Activity IC50 ± SEM, MCF-7
Procedure: as §1, with “doxorubicin. Results (IC50) are illustrated in Table 3.” for “doxorubicin.”
as §2

[13] = system: MOLT; conditions: read-out: IC50 against MOLT; ref [7],[8],[9]; cited from earlier work
[14] = system: CCRF-CEM; conditions: read-out: IC50 against CCRF-CEM; ref [7],[8],[9]; cited from earlier work
[15] = system: MCF-7 cancer cell line; test: Flow cytometric cell cycle analysis; format: cell-based, human; conditions: for percentage of apoptotic cells in the Pre-G1: control 1.63%
[16] = system: MCF-7 cell line; test: Cell apoptosis assay, annexin V-FITC/PI flow cytometry; format: cell-based, human; conditions: MCF-7, annexin V-FITC staining
Procedure: Apoptosis was determined by flow cytometry based on the annexin V-fluorescein isothiocyanate (FITC) and propidium iodide (PI) staining kit (BD Pharmingen, San Diego, USA). Apoptotic cells were defined as Annexin-V-positive. Cells were grown to approximately ~70% confluency and exposed to the tested compounds (8 μmol/L) for 24 h. Treated cells were trypsinized, washed twice with PBS, and transferred into microcentrifuge tubes for centrifugation at 1000 rpm for 5 min at room temperature, and then resuspended in binding buffer; 5 μL of FITC and PI were added to per Eppendorf tube, and cells were vortexed and incubated for 15 min at room temperature in the dark. Subsequently, cells were analyzed by flow cytometry (Becton Dickinson, Franklin Lakes, NJ, USA).

[17] = system: RPMI-8226; design: method as in PMID 31212178, PMID 32062064, PMID 33137557; conditions: ref [7],[8],[9]; read-out: IC50 against RPMI-8226; cited from earlier work

Question: What does the source list for `COc1ccc2[nH]c(=O)c(C(c3ccc(OCc4cn(-c5cc(=O)[nH]c6ccccc56)nn4)cc3)c3c(O)c4cc(OC)ccc4[nH]c3=O)c(O)c2c1` [Compound 8e, 3,3’-((4-((1-(2-oxo-1,2-dihydroquinolin-4-yl)-1H-1,2,3-triazol-4-yl)methoxy)phenyl)-methylene)bis(4-hydroxy-6-methoxyquinolin-2(1H)-one)]?
Answer: IC50 [1]: 1880 nM; Cytochrome C Conc [2]: 0.548 ng/mL; Bcl-2 Conc [3]: 1.278 ng/mL; Bcl-2 Fold Reduction [3]: 3.97 fold; IC50 [4]: 2100 ± 200 nM; Caspase 9 Conc [5]: 12.89 ng/mL; Caspase 9 Fold Change [5]: 13.86 fold; Bax Conc [6]: 247.65 pg/mL; Bax Fold Change [6]: 30 fold and 29.98 fold; Caspase 3 Conc ([7]; MCF-7): 475.20 ± 4.27 pg/mL; Caspase 3 Fold Change [7]: 7.23 fold; IC50 [8]: 2200 ± 400 nM; IC50 [9]: 1700 ± 100 nM; viability at 96 h, 50 µM [10]: 85%; Caspase 8 Conc [11]: 1.29 ng/mL; Caspase 8 Fold Change [11]: 7.58 fold; IC50 [12]: 1500 ± 700 nM

Question: With `N#Cc1nn(-c2cc(=O)[nH]c3ccc(Br)cc23)c(N)c1C#N` [III] as the compound, how does the IC50 [13] read?
Answer: The IC50 was 1350 ± 80 nM.

Question: What about the IC50 [14] of the same compound?
Answer: Its IC50 is 2420 ± 40 nM.

Question: What does the source list for `COc1cccc2c1C(=O)c1c(O)c3c(c(O)c1C2=O)C[C@@](O)(C(=O)CO)C[C@@H]3O[C@H]1C[C@H](N)[C@H](O)[C@H](C)O1` [Doxorubicin, reference compound]?
Answer: IC50 [1]: 1140 nM; Cytochrome C Fold Change [2]: 13.13 fold; Bcl-2 Conc [3]: 0.983 ng/mL; Bcl-2 Fold Reduction [3]: 5.17 fold; Bcl-2 Conc ([3]; listed as doxorubicin): 0.98 ng/mL; Caspase 9 Conc [5]: 16.23 ng/mL; Bax Conc [6]: 276.19 pg/mL; Bax Fold Change [6]: 33.42 fold; Caspase 3 Fold Change [7]: 7.66 fold; Caspase 8 Fold Change [11]: 10.07 fold; percentage of apoptotic cells in the Pre-G1 [15]: 22.17%; IC50 [12]: 900 ± 620 nM

Question: Which IC50 [1] does the source give for `COc1ccc2[nH]c(=O)cc(-n3cc(COc4ccc(C(c5c(O)c6cc(OC)ccc6[nH]c5=O)c5c(O)c6cc(OC)ccc6[nH]c5=O)cc4)nn3)c2c1` [Compound 8g, 3,3’-((4-((1-(6-Methoxy-2-oxo-1,2-dihydroquinolin-4-yl)-1H-1,2,3-triazol-4-yl)methoxy)phenyl)methylene)bis(4-hydroxy-6-methoxyquinolin-2(1H)-one)] here?
Answer: The IC50 was 1580 nM.

Question: And the “Cytochrome C Conc” value [2]?
Answer: The value was 0.587 ng/mL.

Question: And the “Cytochrome C Fold Change” value [2]?
Answer: The value was ~12.76 fold.

Question: What about the “Bcl-2 Conc” value [3] of the same compound?
Answer: Its value is 1.085 ng/mL.

Question: What about the “Bcl-2 Fold Reduction” value [3] of the same compound?
Answer: Its value is 4.68 fold.

Question: What about the IC50 [4] of the same compound?
Answer: The IC50 was 1900 ± 200 nM.

Question: And the pro-apoptotic activity [16]?
Answer: The pro-apoptotic activity was “significant pro-apoptotic activity”.

Question: And the “Caspase 9 Conc” value [5]?
Answer: Its value is 13.98 ng/mL.

Question: What about the “Caspase 9 Fold Change” value [5] of the same compound?
Answer: The value was 15.03 fold.

Question: What about the “Bax Conc” value [6] of the same compound?
Answer: Its value is 264.90 pg/mL.

Question: And the “Bax Fold Change” value [6]?
Answer: Its value is 32 fold and 32.07 fold.

Question: What about the “Caspase 3 Fold Change” value [7] of the same compound?
Answer: Its value is 7.45 fold.

Question: And the IC50 [8]?
Answer: Its IC50 is 1800 ± 400 nM.

Question: And the IC50 [9]?
Answer: The IC50 was 1400 ± 200 nM.

Question: And the viability at 96 h, 50 µM [10]?
Answer: Its viability at 96 h, 50 µM is 84%.

Question: And the “Caspase 8 Conc” value [11]?
Answer: Its value is 1.52 ng/mL.

Question: And the “Caspase 8 Fold Change” value [11]?
Answer: The value was 8.94 fold.

Question: What about the “percentage of apoptotic cells in the Pre-G1” value [15] of the same compound?
Answer: The value was 26.57%.

Question: And the “percentage of cells in the G2/M phase” value ([15]; control 4.38%)?
Answer: The value was 36.6%.

Question: And the “percentage of cells in the S phase” value ([15]; control 42.01%)?
Answer: The value was 27.15%.

Question: What about the “percentage of cells in the G0/G1 phase” value ([15]; control 53.61%) of the same compound?
Answer: The value was 36.25%.

Question: What about the IC50 [12] of the same compound?
Answer: Its IC50 is 1200 ± 200 nM.

Question: With `O=c1cc(N/N=C/c2ccc(Cl)cc2)c2cc(Cl)ccc2[nH]1` [II] as the compound, how does the IC50 [17] read?
Answer: The IC50 was 15700 ± 1210 nM.
